Source: PubChem BioAssay (NCATS)
The inconclusive results got no clear call from the source; some entries with a clear call stand among them for comparison. Potencies beside an inconclusive call are fits to weak or partial responses and may not hold up. “Side channel” marks fits to a control or component signal instead of the main read-out. The source made the active and inactive calls. The call rests on the fitted dose curve; in most records, active means well fitted activation curve with a large enough effect in the signal ratio, with a control signal flat (not every such curve was filed as active); inconclusive means small, poorly fitted or top-dose-only effect, or effect the other way, or a change in a side signal; inactive means flat fitted curve, though single readings scatter; the % refers to the signal ratio.

Test: qHTS Assay for Identification of Small Molecule Agonists for Hypoxia Response Element Signaling Pathway (AID 914); on activation: top concentration of the series differs between compounds; % of control where 0% means no effect
Conditions: ME-180 (cervical carcinoma) HRE-bla reporter, beta-lactamase ratio, CoCl2, 17 h; activation: active compounds read high
Description: NIH Molecular Libraries Screening Centers Network [MLSCN]
NIH Chemical Genomics Center [NCGC]
Hypoxia-inducible factor-1 (HIF-1) is the major hypoxia-regulated transcription factor that controls cellular responses to low oxygen concentration. HIF-1 is composed of two subunits: hypoxia responsive HIF-1 alpha and constitutively expressed HIF-1 beta, which is also known as aryl hydrocarbon receptor nuclear translocator. During hypoxic conditions, HIF-1 alpha heterodimerizes with HIF-1 beta and translocates into the nucleus where the HIF-1 complex binds to the hypoxia-response element (HRE) and activates expression of target genes such as VEGF (vascular endothelial growth factor). HIF-1 alpha protein levels are elevated in many solid tumors, including those of the cervix and brain. Within tumors, cells that are the greatest distance from blood vessels and therefore the most hypoxic express the highest levels of HIF-1 alpha. Therapeutic blockade of the HIF-1 signaling pathway in cancer cells therefore provides an attractive strategy for development of anticancer drugs.
Using a beta-lactamase reporter-gene under control of the hypoxia response element, a cell-based assay [CellSensor(TM) HRE-bla ME-180 developed by Invitrogen Corp.] was used to measure hypoxia-induced signaling. Library compounds were measured for their ability to positively modulate the action of EC50 CoCl2 on reporter gene activity. Compounds were screened in a titration series in 1536-well format. Positive modulators were identified based on the AC50 values derived from the screening data.
NCGC Assay Protocol Summary:
2500 cells/5uL in Opti-MEM medium containing 0.5% dialyzed FBS, 0.1 mM NEAA, 1 mM sodium pyruvate and 10 mM HEPES was dispensed into 1536-well plates and cells were cultured at 37 degrees Celsius overnight. Next day 23 nL of compounds or DMSO were delivered to each well using a pin tool, and 1uL of EC50 level of CoCl2, or EC100 level of CoCl2, or assay medium was added. And then the plates were incubated at 37 degrees Celsius for 17 hours. 1 uL of CCF4-dye mixture was added to each well. After incubated at room temperature for 2.5 hours the plates were measured on an EnVision plate reader at Excitation 405nm, Emission1=460nm and Emission 2=530nm. The %Activity was determined from the ratio of 460nm/530nm.
Potency means the concentration at half of the fitted maximal effect; tags describe the fitted curve by direction and shape or compound fluorescence and quenching.

| SMILES | activation | Potency |
| --- | --- | --- |
| O=C(O)C1CC2(C1)CC(C(=O)O)C2 (stereo not given) | inconclusive: -3.29% |  |
| Cc1cnc(CNc2ncncc2-c2ccc(C(=O)N(C)C)cc2)cn1 | inactive: 0.757% |  |
| O=C1CN(/N=C\c2ccc([N+](=O)[O-])o2)C(=O)N1 | inconclusive: 41.9% |  |
| CCCCSc1nnc(-c2ccc(NC(C)=O)cc2)n1C | inconclusive: -32.6% |  |
| CN(C=C1C(=O)CC(C)(C)CC1=O)CCN1CCNCC1 | inactive: -4.98% |  |
| CCCc1cc(=O)oc2c(C)c(O)c(CN3CCCCC3)cc12 |  | inconclusive: 7.94 µM [activator, partial curve] |
| COC(=O)c1[nH]c2cc(OC)ccc2c1NC(=O)CN1CCC(C(N)=O)CC1 | inconclusive: -25% |  |
| CCCCCN(CCCCC)C(=O)[C@H](CCC(=O)O)NC(=O)c1ccc(Cl)c(Cl)c1 | inconclusive: -25.8% | inconclusive: 15.8 µM [inhibitor, partial curve] |
| C/C(=C\c1ccc(Cl)cc1)C(C)(C)C(=O)O | inconclusive: -25.4% |  |
| COc1cccc(Cn2c(=O)c(-c3cccs3)nc3cnc(Nc4ccccc4)nc32)c1 |  | inconclusive: 3.16 µM [fluorescent, side channel, partial curve] |
| CC(=O)N=C(N)Sc1nc2ccccc2[nH]1 |  | inconclusive: 2 µM [inhibitor, partial curve] |
| CC(C)(C)C(=O)[C@H]([C@@H](c1ccccc1)N1CCOCC1)N1CCOCC1 |  | inconclusive: 0.02 µM [inhibitor, full curve] |
| CCOC(=O)CCN1C(=O)[C@H]2[C@@H]3[C@H](O)[C@H](O)CC(=O)[C@H]3CC[C@H]2C1=O | inactive: 2.87% | inconclusive: 0.199 µM [inhibitor, single point] |
| COc1ccc2c(c1)O[C@H](c1cccc(C(F)(F)F)c1)[C@@H](O)C2=O | inconclusive: -82.5% |  |
| CCCCc1nc2sc3c(c2c(=O)[nH]1)CCC3 |  | inconclusive: 0.251 µM [inhibitor, partial curve] |
| CC(=O)Nc1ccccc1O | inactive: 8.91% |  |
| Cc1cc(SCC(=O)c2ccccc2)nc2ccccc12 | inconclusive: -18.5% |  |
| CO[C@@H]1/C=C\O[C@]2(C)Oc3c(C)c(O)c4c(O)c(cc(O)c4c3C2=O)NC(=O)/C(C)=C\C=C/[C@H](C)[C@@H](O)[C@H](C)[C@H](O)[C@H](C)[C@H](OC(C)=O)[C@@H]1C | inconclusive: -23.3% |  |
| CO[C@H]1COC(=O)CCC[C@@H](C)[C@H](OC)COC(=O)[C@@H](C)NC(=O)C/C=C\[C@@H]1C | inconclusive: -3.56% |  |

| SMILES | activation | Potency |
| --- | --- | --- |
| [Cu].[O-]/N=C1/C(=[OH+])Nc2ccccc21.[O-]Nc1c(O)[nH]c2ccccc12 |  | inconclusive: 1 µM [cytotoxic, side channel, single point] |
| NS(=O)(=O)c1cc2c(cc1Cl)=NC(CCC(=O)O)=NS=2(=O)O | inconclusive: 6.97% |  |
| Cc1ccc2nc3nc4ccc[nH]c4cc3c2c1 | inactive: -21.2% |  |
| O=C1CCCC=C1[C@H](O)CCCCBr | inconclusive: -8.14% |  |
| Cn1c(=O)c2c(nc(NCc3ccc4c(c3)OCO4)n2Cc2ccccc2F)n(C)c1=O | inconclusive: -27.2% |  |
| CCSc1nnc(NC(NC(=O)c2ccco2)(C(F)(F)F)C(F)(F)F)s1 | inconclusive: 4.3% |  |
| CC(C)(C)c1onc(OCP(=O)(O)O)c1C[C@@H](N)C(=O)O |  | inconclusive: 12.6 µM [inhibitor, single point] |
| Oc1c(CN2CCOCC2)ccc(CN2CCOCC2)c1O | inconclusive: -36.9% |  |
| COc1cccc([C@H]2Oc3ccc(OC)cc3/C(=N\O[C@@H]3O[C@H](COC(C)=O)[C@H](OC(C)=O)[C@H](OC(C)=O)[C@H]3OC(C)=O)[C@@H]2O)c1 | inconclusive: -8.96% |  |
| O=C(O)C/C=C\CC(=O)O | inconclusive: 2.65% |  |
| CCN(CC)C[C@@H](O)CN1CCCCc2nc(C)c(C)cc21 |  | inconclusive: 5.01 µM [inhibitor, single point] |
| COc1ccc2c(=O)c(-c3nc(C)cs3)coc2c1 |  | inconclusive: 7.94 µM [inhibitor, partial curve, poor fit] |
| c1ccc2c(c1)nc(CN1CCOCC1)n1c3ccccc3nc21 |  | inconclusive: 6.31 µM [inhibitor, partial curve] |
| CCCC(=O)N1CCc2[nH]c3ccccc3c2C1 | inconclusive: -22.8% |  |
| C[C@@](N)(/C=C\c1ccccc1)C(=O)O | inactive: -2.86% |  |
| Cc1cc(C)c(-c2cc([C@H](C)O/N=C3/[C@H]4OC4[C@@H](O)[C@H]4[C@H]3CCn3c(=O)n(-c5ccccc5)c(=O)n34)on2)c(C)c1 (stereo not given in full) |  | inconclusive: 1 µM [inhibitor, single point] |
| CC1CN(c2oc(-c3ccccc3Cl)nc2C#N)CC(C)O1 (stereo not given) |  | inconclusive: 3.98 µM [inhibitor, single point] |
| CCOC(=O)[C@@H](O)Cc1cnc2ccccc2n1 |  | inconclusive: 3.16 µM [inhibitor, single point] |
| CNc1ccnc(-c2c(C)noc2C)n1 | inactive: 11.5% |  |
